Test results: ChEMBL document CHEMBL1201862, “PubChem BioAssay data set” (2004)
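Where inhibition never reached the appropriate level, the endpoint shown equals the highest concentration tested. Otherwise, values were interpolated linearly from a five-concentration, 48-hour dose response in 96-well plates. GI50: concentration for 50% inhibition of growth.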 Active and inactive are the calls of the source. Cut-off read from the data, not from the text of the source: active = GI50 up to about 1.1 µM and inactive = higher.

These compounds were tested on NCI-H322M (assay: NCI anticancer screen, dose series, 48 h).

| SMILES | GI50 |
| --- | --- |
| CC/C=C\C/C=C\C/C=C\CCCCCCCC(=O)OCC | inactive: > 100 µM |
| CC12CCCCC1=[N+]([O-])C(C)(C)N2O (configuration not stated) | inactive: > 100 µM |
| CC(=O)OCCOCNC(=S)N/N=C/c1ccc(Br)s1 | inactive: > 100 µM |
| CCOC(=O)C(C(=O)OCC)C1C=CCC2c3ccccc3COCC21 (configuration not stated) | inactive: > 100 µM |
| CCCCCc1cc2cc3c(c(O)c2c(=O)[nH]1)C1(CCC3)C(=O)c2c(O)c3c(c(O)c2C1=O)C(=O)C(OC)=CC3=O (configuration not stated) | inactive: 2.64 µM |
| CN1CCC(c2c(O)cc(O)c3c(=O)cc(-c4ccccc4Cl)oc23)C(O)C1 (configuration not stated) | active: 0.0933 µM |
| CCOC(=O)C1=C(C)NC(C)=C(C(=O)OCCNC(=O)c2ccc(N=[N+]=[N-])cc2)C1c1ccccc1C(F)(F)F (configuration not stated) [AZIDOPINE] | inactive: 22.4 µM |
| CC(=O)O[C@@H]1C(C2CCCCC2)C=[N+]([O-])O[C@@H]1OC1CCCC1(c1ccccc1)c1ccccc1 (some centres not stated) | inactive: 17.1 µM |
| CCC(C)Cn1c(C)nc2c1C(=O)c1ccccc1C2=O (configuration not stated) | inactive: 50.2 µM |
| CCOP1(=O)C=CC(Cl)=C(C)C1 (configuration not stated) | inactive: 23 µM |
| CCOC(=O)CCC(NC(=O)Cc1ccc(Nc2nc3ccccc3nc2-c2cccs2)cc1)C(=O)OCC (configuration not stated) | inactive: 53 µM |
| Cc1c(C)c(C)c(CC2(C)CSC2)c(CC2(C)CSC2)c1C | inactive: > 100 µM |
| O=C(O)[C@@H](NS(=O)(=O)c1ccc([N+](=O)[O-])cc1)c1ccccc1 | inactive: > 100 µM |
| CC1=C(C(=O)NNC(=O)C(N)=O)CC(C(=O)NNC(=O)C(N)=O)=C(C)N1 | inactive: > 100 µM |
| O=c1[nH]c2ccccc2c(=O)n1/N=C/c1ccc(O)cc1 | inactive: > 100 µM |
| COC(=O)C1=C(C(=O)OC)C2OC1c1cc3ccccc3cc12 | inactive: 19.4 µM |
| CN(C)c1nncc2[nH]cnc12 | inactive: > 100 µM |
| COc1ccc(S(=O)(=O)N(CC(=O)O)c2ccccc2)cc1 | inactive: > 100 µM |
| COc1ccccc1C(=O)NO | inactive: > 100 µM |
| Cc1ccc(S(=O)(=O)N/N=C(\CCN2CCCC2)CC(c2ccccc2)c2c(O)c3ccccc3oc2=O)cc1 (configuration not stated) | inactive: > 100 µM |
| CCOC(=O)CNC(=O)C(CCC(=O)N(C)O)NC(=O)CCC(N)C(=O)O (configuration not stated) | inactive: > 100 µM |
| CS/C=C\C(=O)O[C@H]1C[C@@H]2[C@@H](O)c3occ(C)c3C[C@]2(C)[C@@H](C)C1 | inactive: 40.2 µM |
| Cc1ccccc1C(=O)C#Cc1cn(C2CC(O)C(CO)O2)c(=O)[nH]c1=O (configuration not stated) | inactive: > 100 µM |

| SMILES | GI50 |
| --- | --- |
| Nc1ccc(-c2cssc2=S)cc1 | inactive: 56.1 µM |
| Cc1nc2ccccc2c(=O)n1-c1ccccc1F | inactive: > 100 µM |
| COc1ccc(C(C)c2cc3c(cc2O)OCO3)cc1 (configuration not stated) | inactive: 21.4 µM |
| c1ccc2c(c1)ccn1ccc3c4ccccc4nc-3c21 | active: 0.238 µM |
| CC(C(=O)n1ccnc1)N1c2ccccc2Sc2ccccc21 (configuration not stated) | inactive: > 100 µM |
| COc1ccc(C2SCC(=O)N2NC(=O)c2ccc(NC(C)=O)cc2)c(OC)c1 (configuration not stated) | inactive: > 100 µM |
| C[C@H](Nc1nc(N)c(N=O)c(=O)n1C)C(=O)O | inactive: > 10 µM |
| O=C1CSC(c2cccc(Oc3ccccc3)c2)N1c1cccc(Cl)c1Cl (configuration not stated) | inactive: 99.1 µM |
| O=C(C1OC1c1ccc(Cl)cc1)C12CC3CC(CC(C3)C1)C2 (configuration not stated) | inactive: 22.5 µM |
| Cc1ccc2c(=O)c(-c3n[nH]c(=S)s3)c[nH]c2n1 | inactive: > 100 µM |
| COC(=O)c1ccccc1CC(Cc1ccccc1)C(=O)OC (configuration not stated) | inactive: > 100 µM |
| CN(c1ccc(Cl)cc1)S(=O)(=O)c1ccc([N+](=O)[O-])cc1 | inactive: > 100 µM |
| CC1=C(Nc2c(C)cc(O)cc2O)C(=O)C=c2oc3c(c21)C(C)=C(Nc1c(C)cc(O)cc1O)C(=O)C=3 | inactive: 31.2 µM |
| NC1C(O)C(O)C(CO)OC1n1cc(F)c(=O)[nH]c1=O (configuration not stated) | inactive: > 100 µM |
| Cn1c(=O)c2c(ncn2CCCCOc2ccc3c(c2)[n+]([O-])nc(N)[n+]3[O-])n(C)c1=O | inactive: 23.2 µM |
| CCOC(=O)C1=C(C)NC(c2ccccc2)=C(C(=O)OCc2ccccc2)C1C#Cc1ccccc1 (configuration not stated) | inactive: > 100 µM |
| CSc1nc(=O)c2nc(-c3cccs3)c(-c3cccs3)nc2n1C | inactive: 48.5 µM |
| C=CCO/N=C/c1cc(/N=C(/S)c2ccoc2C)ccc1Cl | inactive: 14.9 µM |
| OCCN(CCO)c1ccc2c(c1)Cc1ccccc1-2 | inactive: 36.3 µM |
| CC[C@H](CCCC[C@H]1CC[C@@H]2CC(=O)C[C@H]12)OC | inactive: > 100 µM |
| CC(=O)OC1CC2Oc3ccc(C)cc3C(C)(O2)C1=O (configuration not stated) | inactive: > 100 µM |
| CC1(C)OC[C@H](COCOP2(=O)Oc3ccc4ccccc4c3-c3c(ccc4ccccc34)O2)O1 | inactive: 18.9 µM |
| Cc1cccc(NC(=O)/C=C/c2ccccc2)c1C | inactive: > 100 µM |

| SMILES | GI50 |
| --- | --- |
| CCC/C(Cl)=N\OC(=O)Nc1cccc(C(F)(F)F)c1 | inactive: > 100 µM |
| CC(=O)Nc1c(Nc2ccccc2)[nH]c(C)nc1=S | inactive: > 100 µM |
| COc1ccc(Nc2nc(NNC(=O)Cc3ccccc3)nc(NNC(=O)c3ccncc3)n2)cc1 | inactive: > 10 µM |
| O=C(CCC1OCCO1)Nc1cc(NCc2ccccc2)ccc1OCc1ccccc1 | inactive: 34.1 µM |
| O=c1cc[nH]c(=O)[nH]1 [URACIL] | inactive: 632 µM |
| O=S1(=O)CSc2ccc3ccccc3c2-c2c1ccc1ccccc21 | inactive: > 100 µM |
| CC(C)=CCc1c2c(c3occ(-c4ccc(O)cc4)c(=O)c3c1O)CC(C(C)(C)O)O2 (configuration not stated) [SENEGALENSIN] | inactive: 6.38 µM |
| O=C(c1ccco1)N1CCCN(C(=O)c2ccco2)C1=S | inactive: > 100 µM |
| O=C1C(c2ccccc2)=C(c2ccccc2)[C@H](c2ccccc2)[C@]1(Cc1nnn(-c2ccc([N+](=O)[O-])cc2)c1N1CCOCC1)c1ccccc1 | inactive: > 37.5 µM |
| O=S(=O)(O)CCS [MESNA] | inactive: > 100 µM |
| CCOC(=O)C1=C(NC(C)(C)C)OCC1=O | inactive: > 100 µM |
| O=C1Nc2ccc(Br)cc2/C1=N/NC(=S)Nc1ccc(F)cc1 | inactive: 10.8 µM |
| CC1(C)OCC(C(O)C2OC(C)(C)OC2C=O)O1 (configuration not stated) | inactive: > 100 µM |
| N#CC(C#N)=CNC(=S)Nc1ccc(S(=O)(=O)Nc2nccs2)cc1 | inactive: > 100 µM |
| CCN(CC)c1ccc(/N=N\c2ccc(-c3nc4ccc[n+](C)c4s3)cc2)cc1 | inactive: 12.6 µM |
| CC(C)CCCC(=O)CCCCCCC(=O)CCN(O)C(=O)C(N)CO (configuration not stated) | inactive: 16.9 µM |
| CC1=NN(C(=O)CC(=O)N(C(=O)c2ccccc2)c2ccc(Cl)cc2)C(=O)C1/N=N/c1ccc([N+](=O)[O-])cc1 (configuration not stated) | inactive: > 10 µM |
| CN(C)CCOc1cccc2c1C(=O)c1ccccc1C2=O | inactive: 10.5 µM |
| O=C1CCC(=O)N1CNc1ccc2c(c1)S(=O)(=O)c1ccccc1O2 | inactive: > 100 µM |
| COc1cc(CNC(=O)CCCCCCCC/C=C/Br)ccc1O | inactive: > 10 µM |
| Cn1nc2ccc3nccc(NCCNCCCl)c3c2n1 | inactive: > 100 µM |
| Cc1ccc2c3c1O[C@H]1c4[nH]c5ccccc5c4C[C@@]4(O)[C@@H](C2)N(C)CC[C@]314 | inactive: 15.7 µM |
| CCN(CCCl)c1cc(CN(C)C)cc(NC(=O)c2ccc(C(=O)Nc3ccccc3)cc2)c1 | inactive: 1.48 µM |

| SMILES | GI50 |
| --- | --- |
| CCc1cc(O)c(Cl)c(C)c1Cl | inactive: 18.1 µM |
| COc1cc(Nc2nc3ccc(C(F)(F)F)cc3nc2-c2ccccc2)cc(OC)c1OC | inactive: 43.4 µM |
| Cc1ccc([N+](=O)[O-])c2c(NCCNC(=O)c3cc(C(=O)NCCNc4ccnc5c(C)ccc([N+](=O)[O-])c45)n(C)n3)ccnc12 | inactive: > 59.4 µM |
| CC(=O)O[C@H]1CC[C@H]2[C@@H]3CCc4cc(O)c(I)cc4[C@H]3CC[C@]12C | inactive: 15.9 µM |
| COc1ccc(/C=C\c2cc(OC)c3c(c2)OCO3)c(O)c1O | inactive: 9.86 µM |
| O=[N+]([O-])c1ccc2nc3ccc([N+](=O)[O-])cn3c2c1 | inactive: > 100 µM |
| O=C(O)/C(=C\c1ccc(O)cc1)c1cccc2ccccc12 | inactive: 85.1 µM |
| O=c1cc(/N=N\c2ccc(Cl)cc2)[nH]c(=O)[nH]1 | inactive: 12.6 µM |
| COc1c(OC(C)=O)cc2c(OC(C)=O)c1CC(C)CC(OC)C(O)C(C)/C=C(\C)C(OC(N)=O)C(OC)/C=C\C=C(/C)C(=O)N2 (configuration not stated) | inactive: > 100 µM |
| O=c1cc(C(F)(F)F)c2cc3c(cc2o1)NCCC3 | inactive: 58.2 µM |
| O=C(NCCCCCCCCNC(=O)Nc1cccc2ccccc12)Nc1cccc2ccccc12 | inactive: > 100 µM |
| CC(=O)Nc1ccccc1-c1nc2ccccc2nc1-c1ccccc1 | inactive: > 100 µM |
| CC(=O)N(CCCCNC(=O)C(F)(F)F)CCCNC(=O)C(F)(F)F | inactive: > 100 µM |
| Cc1sc(NC=C2C(=O)CC(C)(C)CC2=O)nc1-c1ccccc1 | inactive: > 100 µM |
| Cc1ccc(N2C(=O)/C(=C/c3ccc(N(CCC#N)CCC#N)cc3)N=C2COc2ccc(Cl)cc2Cl)cc1 | inactive: > 100 µM |
| CC(C)CCC[C@@H](C)C1CCC2[C@@H]3CC=C4C[C@@H](C(=O)NCCN(C)C)CC[C@]4(C)C3CC[C@@]21C (some centres not stated) | inactive: 39.4 µM |
| CC(=O)O[C@H]1C(=O)N(c2cc3c4ccccc4ccc3c3ccccc23)[C@@H]1c1ccccc1 | inactive: 2.11 µM |
| Nc1nc(Cl)c(N)c(NCC2(CO)CC(OCc3ccccc3)C2)n1 (configuration not stated) | inactive: > 100 µM |
| COC1C(O)C(C)OC(OC2C(Oc3cccc4c(O)c5c(=O)oc6ccc(C)c7c(=O)oc(c34)c5c67)OC(C)C3O[C@H](c4ccccc4)OC32)C1O (some centres not stated) | active: 0.305 µM |
| CC(=O)c1c(-c2cccc3ccccc23)c(C#N)c(=S)n(C2OC(CO)C(O)C(O)C2O)c1C (configuration not stated) | inactive: > 100 µM |
| c1cnc2c(c1)-n1cccc1C1(CCSC1)NN2 (configuration not stated) | inactive: > 100 µM |
| C=C(C)C(=O)OC1C/C(CO)=C\C(O)C/C(C)=C/C2OC(=O)C(=C)C21 (configuration not stated) | inactive: 24.2 µM |
| O=C1NC(N2CCCC(CO)C2)=N/C1=C\c1ccc(O)cc1 (configuration not stated) | inactive: > 100 µM |
